Assay results as given in the supplement of paper PMC11876631.
± gives the standard deviation of the averaged measurements. Laboratory Escherichia coli strains with one amino-acid change in an essential protein, pooled on minimal glucose agar with carbenicillin or gentamicin at twice the control MIC (plus kanamycin and chloramphenicol for the plasmids), 48 h. Fold change of barcode share against drug-free plates; higher = less susceptible. Active = above 20 in both replicates (the paper's putatively resistant). '<' = one read or none on drug, '>' = one read or none on a drug-free plate. Shares are relative, so most strains fall below 1 when a few take over. Listed are strains with at least 15 reads on both drug-free plates, and hits; most hits rest on fewer reference reads. Replicate rank correlation about 0.5. Edits are read from barcodes.

B1: gpsA; numbered along this chain (parent)
chain: MNQRNASMTVIGAGSYGTALAITLARNGHEVVLWGHDPEHIATLERDRCNAAFLPDVPFPDTLHLESDLATALAASRNILVVVPSHVFGEVLRQIKPLMRPDARLVWATKGLEAETGRLLQDVAREALGDQIPLAVISGPTFAKELAAGLPTAISLASTDQTFADDLQQLLHCGKSFRVYSNPDFIGVQLGGAVKNVIAIGAGMSDGIGFGANARTALITRGLAEMSRLGAALGADPATFMGMAGLGDLVLTCTDNQSRNRRFGMMLGQGMDVQSAQEKIGQVVEGYRNTKEVRELAHRFGVEMPITEEIYQVLYCGKNAREAALTLLGRARKDERSSH

Variants of: B1
Experiment: barcode share on antibiotic plates over drug-free plates; higher = less susceptible
Conditions: with Escherichia coli (laboratory strain)
Experimental: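 A pool of E. coli strains, each edited to carry one amino-acid change in an essential protein, was grown for 48 h on minimal glucose agar with or without antibiotic; strain barcodes were sequenced; mean of two replicates.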

[1] = antibiotic: carbenicillin, 2× MIC (3.1 µg/mL)
[2] = antibiotic: gentamicin, 2× MIC (MIC 0.45 µg/mL)

Row | Variant | fold change of barcode share [1] | fold change of barcode share [2]
1 | MNQRNASMTVIGAGSYGTALAITLARNGHEVVLWGHDPEHIATLERDRCNAAFLPDVPFPDTLHLESDLATALAASRNIAVVVPSHVFGEVLRQIKPLMRPDARLVWATKGLEAETGRLLQDVAREALGDQIPLAVISGPTFAKELAAGLPTAISLASTDQTFADDLQQLLHCGKSFRVYSNPDFIGVQLGGAVKNVIAIGAGMSDGIGFGANARTALITRGLAEMSRLGAALGADPATFMGMAGLGDLVLTCTDNQSRNRRFGMMLGQGMDVQSAQEKIGQVVEGYRNTKEVRELAHRFGVEMPITEEIYQVLYCGKNAREAALTLLGRARKDERSSH [L80A] | 0.385 ± 0.2 | 0.0128 ± 0.013
2 | MNQRNASMTVIGAGSYGTALAITLARNGHEVVLWGHDPEHIATLERDRCNAAFLPDVPFPDTLHLESDLATALAASRNIDVVVPSHVFGEVLRQIKPLMRPDARLVWATKGLEAETGRLLQDVAREALGDQIPLAVISGPTFAKELAAGLPTAISLASTDQTFADDLQQLLHCGKSFRVYSNPDFIGVQLGGAVKNVIAIGAGMSDGIGFGANARTALITRGLAEMSRLGAALGADPATFMGMAGLGDLVLTCTDNQSRNRRFGMMLGQGMDVQSAQEKIGQVVEGYRNTKEVRELAHRFGVEMPITEEIYQVLYCGKNAREAALTLLGRARKDERSSH [L80D] | 0.351 ± 0.13 | < 0.00676
3 | MNQRNASMTVIGAGSYGTALAITLARNGHEVVLWGHDPEHIATLERDRCNAAFLPDVPFPDTLHLESDLATALAASRNIQVVVPSHVFGEVLRQIKPLMRPDARLVWATKGLEAETGRLLQDVAREALGDQIPLAVISGPTFAKELAAGLPTAISLASTDQTFADDLQQLLHCGKSFRVYSNPDFIGVQLGGAVKNVIAIGAGMSDGIGFGANARTALITRGLAEMSRLGAALGADPATFMGMAGLGDLVLTCTDNQSRNRRFGMMLGQGMDVQSAQEKIGQVVEGYRNTKEVRELAHRFGVEMPITEEIYQVLYCGKNAREAALTLLGRARKDERSSH [L80Q] | 0.444 ± 0.0039 | 0.0132 ± 0.0011
4 | MNQRNASMTVIGAGSYGTALAITLARNGHEVVLWGHDPEHIATLERDRCNAAFLPDVPFPDTLHLESDLATALAASRNIWVVVPSHVFGEVLRQIKPLMRPDARLVWATKGLEAETGRLLQDVAREALGDQIPLAVISGPTFAKELAAGLPTAISLASTDQTFADDLQQLLHCGKSFRVYSNPDFIGVQLGGAVKNVIAIGAGMSDGIGFGANARTALITRGLAEMSRLGAALGADPATFMGMAGLGDLVLTCTDNQSRNRRFGMMLGQGMDVQSAQEKIGQVVEGYRNTKEVRELAHRFGVEMPITEEIYQVLYCGKNAREAALTLLGRARKDERSSH [L80W] | 0.307 ± 0.078 | 0.0255 ± 0.033
5 | MNQRNASMTVIGAGSYGTALAITLARNGHEVVLWGHDPEHIATLERDRCNAAFLPDVPFPDTLHLESDLATALAASRNILVVVPSHVAGEVLRQIKPLMRPDARLVWATKGLEAETGRLLQDVAREALGDQIPLAVISGPTFAKELAAGLPTAISLASTDQTFADDLQQLLHCGKSFRVYSNPDFIGVQLGGAVKNVIAIGAGMSDGIGFGANARTALITRGLAEMSRLGAALGADPATFMGMAGLGDLVLTCTDNQSRNRRFGMMLGQGMDVQSAQEKIGQVVEGYRNTKEVRELAHRFGVEMPITEEIYQVLYCGKNAREAALTLLGRARKDERSSH [F88A] | 0.2255 ± 0.0022 | 0.00425 ± 0.00026
6 | MNQRNASMTVIGAGSYGTALAITLARNGHEVVLWGHDPEHIATLERDRCNAAFLPDVPFPDTLHLESDLATALAASRNILVVVPSHVQGEVLRQIKPLMRPDARLVWATKGLEAETGRLLQDVAREALGDQIPLAVISGPTFAKELAAGLPTAISLASTDQTFADDLQQLLHCGKSFRVYSNPDFIGVQLGGAVKNVIAIGAGMSDGIGFGANARTALITRGLAEMSRLGAALGADPATFMGMAGLGDLVLTCTDNQSRNRRFGMMLGQGMDVQSAQEKIGQVVEGYRNTKEVRELAHRFGVEMPITEEIYQVLYCGKNAREAALTLLGRARKDERSSH [F88Q] | 0.247 ± 0.054 | < 0.00242
7 | MNQRNASMTVIGAGSYGTALAITLARNGHEVVLWGHDPEHIATLERDRCNAAFLPDVPFPDTLHLESDLATALAASRNILVVVPSHVFGEVLRQIKPLMRPDARLVWATKGLEAETGRLLQDVAREALGDQIPLAVASGPTFAKELAAGLPTAISLASTDQTFADDLQQLLHCGKSFRVYSNPDFIGVQLGGAVKNVIAIGAGMSDGIGFGANARTALITRGLAEMSRLGAALGADPATFMGMAGLGDLVLTCTDNQSRNRRFGMMLGQGMDVQSAQEKIGQVVEGYRNTKEVRELAHRFGVEMPITEEIYQVLYCGKNAREAALTLLGRARKDERSSH [I137A] | 0.404 ± 0.18 | 0.00522 ± 0.0048
8 | MNQRNASMTVIGAGSYGTALAITLARNGHEVVLWGHDPEHIATLERDRCNAAFLPDVPFPDTLHLESDLATALAASRNILVVVPSHVFGEVLRQIKPLMRPDARLVWATKGLEAETGRLLQDVAREALGDQIPLAVPSGPTFAKELAAGLPTAISLASTDQTFADDLQQLLHCGKSFRVYSNPDFIGVQLGGAVKNVIAIGAGMSDGIGFGANARTALITRGLAEMSRLGAALGADPATFMGMAGLGDLVLTCTDNQSRNRRFGMMLGQGMDVQSAQEKIGQVVEGYRNTKEVRELAHRFGVEMPITEEIYQVLYCGKNAREAALTLLGRARKDERSSH [I137P] | 0.582 ± 0.01 | 0.0256 ± 0.012
9 | MNQRNASMTVIGAGSYGTALAITLARNGHEVVLWGHDPEHIATLERDRCNAAFLPDVPFPDTLHLESDLATALAASRNILVVVPSHVFGEVLRQIKPLMRPDARLVWATKGLEAETGRLLQDVAREALGDQIPLAVQSGPTFAKELAAGLPTAISLASTDQTFADDLQQLLHCGKSFRVYSNPDFIGVQLGGAVKNVIAIGAGMSDGIGFGANARTALITRGLAEMSRLGAALGADPATFMGMAGLGDLVLTCTDNQSRNRRFGMMLGQGMDVQSAQEKIGQVVEGYRNTKEVRELAHRFGVEMPITEEIYQVLYCGKNAREAALTLLGRARKDERSSH [I137Q] | 0.31 ± 0.046 | 0.00447 ± 0.0045
